From the supplement of paper PMC10681739
± gives the standard deviation of the averaged measurements. The full ranking holds about 4,100 sequences; the median of “arbitrary fluorescence units” is about 780, and the highest 2% start at about 22,000. This is one part of the list.

molecular target: T1, ETS1 (UniProt P14921); assay: ETS1 binding intensity (PBM fluorescence), ETS1 alone (arbitrary fluorescence units); higher = stronger binding; conditions: ETS1 concentration 1 nM; RUNX1 concentration 0 nM
T1 sequence: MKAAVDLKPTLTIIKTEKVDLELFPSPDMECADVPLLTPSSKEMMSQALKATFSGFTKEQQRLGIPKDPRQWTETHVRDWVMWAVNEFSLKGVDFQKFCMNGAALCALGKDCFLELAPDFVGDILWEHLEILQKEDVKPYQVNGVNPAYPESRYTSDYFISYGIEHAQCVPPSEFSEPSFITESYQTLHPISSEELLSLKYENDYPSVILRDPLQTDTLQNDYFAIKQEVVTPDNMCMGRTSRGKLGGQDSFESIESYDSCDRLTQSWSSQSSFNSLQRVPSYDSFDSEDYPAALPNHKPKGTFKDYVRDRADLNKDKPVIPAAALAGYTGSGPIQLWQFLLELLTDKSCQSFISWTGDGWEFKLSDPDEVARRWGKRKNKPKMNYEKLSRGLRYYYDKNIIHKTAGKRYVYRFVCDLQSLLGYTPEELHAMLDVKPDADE
In short: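 Double-stranded Agilent 4 × 180k arrays held 36-bp genomic probes whose RUNX1 partner site was mutated, and these were incubated with 1 nM full-length recombinant human ETS1 in the absence of RUNX1 under standard PBM protocols. Bound protein was labelled with anti-ETS1 antibody (Cell Signaling Technology 14069) plus an Alexa488-conjugated secondary and read on a GenePix 4400A, with four spots printed per sequence. Binding level is reported as raw spot fluorescence intensity summarised over replicate spots.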

| Sequence | ETS1 binding intensity |
| --- | --- |
| TGGCCTGCAGCAGTCACGTGGCCGCGCTTCCTCGCA | 302 |
| CCGCCGCGACTGCAGGCCTCCGTTCCGCCGGGGTAA | 389 |
| CCTCAAAACCCGGAAACGCCTTGGGGGGCAGTGTGG | 3860 |
| GTTGGCGTAATCGCTAGGTTCTCTGGGAAGTGTAGG | 389 |
| CTAAAGGCAGGGACTACAAACACTTCCTGTTTGTGT | 7710 |
| CCCAAGCTACGGAAGTTAAACCCCAAACATGAAATC | 1450 |
| GAGTCACCAACCAGCGCCATGGGCCGGAAGCCACCG | 764 |
| TGCCGCCTTCATGGTCACCGGAACCCGCTGTCGTAC | 414 |
| AGGACGGGCGGAAGTGGCTGCAGTGGATGGTGGGAG | 6740 |
| TCCCTCCGCTGCCGCGGGCCGGAACTTTTGTCGATA | 428 |
| TTATCGGAACTGCTGGTTGGGCAGGAAGCAGCATGA | 817 |
| GGTCTTTTCTGTCGTTCTGTCACTTCCTTTGTAAGT | 1330 |
| AGGCGGGCTGTGATTAAGCAGTGCAGGATGTAGGCT | 355 |
| GCTCTGGCCGCTCTGCCGCGCGCCGGAAGCAGCCTG | 812 |
| AATTGCGCATCTTTTCCGCCTACCGTACGGCCCCGC | 836 |
| ACTCCGCCCCTTCCGCCTGGCGATTCCACTTCTCGG | 2170 |
| CGGGTTGGGCAGGAAGCAGCATGACAGCAGTGGGTC | 1900 |
| GCTGCGCTTCTCCGGGATAGACTTCCGGCCGCCGGC | 7550 |
| AGCTGCTTCCTGCATCTCAGGCCTTTCTCCGGCCTC | 6300 |
| GAGGAGGCTGTGCTCTGTGTACCCAGGATGTGCTAA | 378 |
| CACGCCTGCGGAAGATGAAAATCACACGTCATGCAG | 453 |
| AATGGCGGGAAGTAAGAGGAACGTGGGCCTGACTGC | 744 |
| GCACTCATTTCCTGTCCCCTGTAGTTTAAAGGTTTT | 19700 |
| GTGTTGTCAGATACAGCCCAGCCACAGGAAGAGGCA | 466 |
| ACGGTTCTGACTGGGGTGATTAGGAAACAGGGCCGC | 361 ± 49 |

| Sequence | ETS1 binding intensity |
| --- | --- |
| TGCATGCAACAGGAAGTGGGGTGTGATTTGTTCTGG | 4820 |
| CTAAGTGCTCTTCCTGCCAACCTGTGAGCGCCTGGC | 4250 |
| CACCGACCGGAAGGGCCCCAAGGATCCCCGCTGCAG | 6690 |
| CTGAGCAGTGTGCTTGGCCCTCACTTCCTCATCGGC | 512 |
| GCGCGCTTCCGCCTTCATGCTAGCAACGCCCTCAGT | 8980 |
| AGGGACGCTGCAGCTGAAGTGGACGGAACTGCCAAG | 382 |
| GACAGGCGCATCTGCTGAGTCATAAGGATGTGGGCC | 339 |
| TCCTTTTCCGGTGGCGGCGCCGCGCGTTGGGGTTGT | 12100 |
| AGGGTTTATGGGACCTGGTGACTCACGGGATGTGGG | 332 |
| CCATATCTGGCTTCCTAAGGAGGAACCCCAAATCGC | 419 |
| CCAAGGATATGCTTTTTTTTGGCAAGTCACATCCAA | 471 |
| GGCTTTCCGTTCAAGGATCTTTTTGGGGTCTTTGTC | 2700 |
| CGGCTAGGAAATAAAGAGCCTTCTCTCCGAGGTAGG | 369 |
| GCACACCCCAAAGCCCTATTAAGACAGGAAGCCAGA | 685 |
| TCCAGCGCCGCTGGGCCAACGAGAGCGCTTCCGGCC | 1740 |
| GCAGGAAGACAAAGGGCATGGTTTGTCTGGTGCCCC | 341 |
| GAGCAGGAAGCACCCCCAGCACAGGCCTGAGGTGAG | 1330 |
| GACAAGATTGCAGGTGGCAACCCCATCCGGTTTGTT | 1400 |
| TGAAGGAAATTGACGAACACGTGACGCGCTCGGGCG | 429 |
| CCGGTCGCCGCTGTCCTCTGCGCGGGATGTGGCTCT | 411 |
| CCTCCTGTGATTAGTTCCTGCCCGATCAGGAAGGAG | 932 |
| CTCGGCGAACCAGCGGGAGGCGGAACCATTGCACCG | 369 |
| CACTGCGGAAGCAGTGTAGAGAGGTAGTTATCAGTG | 1360 |
| CCGGCAGGAAGTTAGCATGGGCGGACGACACGGGGG | 6810 |
| TCAGTGCTGTCAGGGAGTCTGTACTTCCTGGATGGC | 1170 |

| Sequence | ETS1 binding intensity |
| --- | --- |
| TAGATCTTCCTGGACGTGCCTCTCCCCTTCGGCCTG | 904 |
| TGAGCCCTACTTCCGGTGGTGCTGTGCTCTGCCCCT | 29700 |
| AAACTCACACGGTCCTCCTTAAGGAGCTTCCGGGGC | 630 |
| TGCGCATCGTGCTCATCCGCAGCCGCTAAGTGGGGC | 406 |
| GACCGTTTCGGGTTCCGCCTGAGCCCTCAGCACAGG | 554 |
| TAAGAGATTTCCTGTAAAGGTAGCCACCAGCAAAGA | 8830 |
| GTGCCTCCCGAAAGTTCTGTCCCTTCCGTCCCTTCA | 420 |
| GTCTTACTTCCTGTCCCCGCCCACCTCGACTGTCTT | 22700 |
| TGCCATGCCAGCGGCTACTTCCGCCTACCCAGCGGC | 4230 |
| GCCACTATTTCCTGCCTTCTGGGGCTGAGAGTCCCA | 15200 |
| TCTGGGCTGACTTCCTGGCTTCGTCCCAGAACTTCA | 5930 |
| GTGCTTCCTGCTCGCACTGACTCATCGCGCAGCTGA | 7710 |
| CAAGCACATTACGGAAGAGGCTGACCCCAAATACGA | 428 |
| GTTGAAATTGAGCTTCCGTTGGTGGATAACCCTCTG | 3150 |
| AACCAAGCAGCCACTCGAAACTTCCGAGTACACCCT | 472 |
| GCTCAGGATGCTGTCTGTGCACTGTTAGGTGGCTTG | 370 |
| ATGCTGGACGTGGCTGCATAGTATTTCCTAACGGAG | 361 |
| TTAGCCGTATGTGATTTAAAAACTTCCTGTCATTGA | 2530 |
| CGGGGCTTCCGGCGCGCTGCCTTGAGGGCACGGTAG | 12400 |
| GCTGGTATGGCAGGAAGTTTCTCACCAGAGTATACT | 1630 |
| AGGTGTACTTTCCGGGTGCAGACAGCGAATGGATCG | 1310 |
| TCCTAGCCATTTCCTATCCACCCTGTGCCTAATTTG | 4090 |
| CCTACGGGGGGTGCGTGGGCGGGACTTCCGGCTCCT | 5570 |
| ACGATTTTTACACATCCCCGTGCCACCGAATGGCGT | 537 |
| GCCGTCCCCAGCGCTCGCAGCCACCAGGAAACCCCG | 397 |

| Sequence | ETS1 binding intensity |
| --- | --- |
| AATATAGGAAGTGTCAGCTAGGGAACTCAACCCCAA | 1120 |
| TGATTCTGGGAAATGTCGATCGGCTGTGAGCGGCGC | 297 |
| GACTGGGGCTCTTCCTCGGGCAGCGGAAGCGGCGCA | 1060 |
| GACAAGCCATGTAGTTGCTGGCAGGAAATCTCAGTC | 419 |
| CCGTTGCCGCGCTCGTCTTGCCACTTCCTCTGGAGT | 962 |
| AATCCACCGGAAACACTTAGACGCCGAAACCCCAGT | 9420 |
| CCTGGGGTTGCAAAGATGCTCTAACAGGAAGTGGGT | 1670 |
| CACCCTCACGGAAACAGCTGTGTGTAAGCACCTCCA | 585 |
| CTCTGGGAAGTGTAGGCGTAGGGCGTCAGGCCCCAG | 401 |
| CACTTCCCGTGGGAGGATCTTGGGCTGCAGCTAGGG | 7090 |
| AAACTTCCTCTTTTTAGCGCGCAGGCGCCGAAGGGC | 14100 |
| GCTGAGGCCGGAAGAGGGTGGGGCCGAGGTGGCTAG | 3830 |
| TCCTCCATGCAGGAAAACCTCTGTGCTCTGGGAGCT | 370 |
| GCTGGCATTTCCTTCCCTCTCTGGGAGGTGCTCCGC | 2710 |
| TACCACCTCAGGATGTCTGAACTACATGCAAGCAGG | 496 |
| ACCTTACGGGGGCAGTGGGTGGGTGTCACTTCCTCC | 866 |
| ACAGGCTGTCTGCTTCCGTCAGCGGCTATTCCCTTG | 1770 |
| ATCAGAGGCGCCACGGACCAGGGGATTTCCTGTGGG | 847 |
| GTGGAGGAACAGCGAGCCGCCTTCCTCCCCGGCCCA | 378 |
| CTCTGCAGACAGGAAAGCTAGGTGTGCGTGTACTGT | 500 |
| AACCCTTCCTGAAAGTAGATGGGGTATAAACCCCAA | 1280 |
| AAGGCGGTACTTCCTCCAGCATTTGCCGCGAGTTAT | 2680 |
| CCGCGCTTCCTCGCGCTGTGCGCAGCCGTAGACCGA | 821 |
| TGAAGTTGGTGTTTTCCGGGGGCGGATTTTCCATTG | 1100 |
| CCTGCCCTGCGTGGATTTGTCACTTCCTGCTCAGAG | 3300 |

| Sequence | ETS1 binding intensity |
| --- | --- |
| AGGGGCAGAGCACAGCACCACCGGAAGTAGGGCTCA | 9450 |
| CTAGGCAGACCAAAAACGTTAGGGCAGGAAATGATT | 727 |
| CTCACCTCAGGCCTGTGCTGGGGGTGCTTCCTGCTC | 445 |
| AGCACCCCATTCTACACCTCCACCTCATCCTGCGTC | 431 |
| GGAGCTGCAGCCGAGCTCCGTGTCCACTTCCGGGTT | 2460 |
| CTCGTGGGTGCCGGAAGTGGAGGCGGCTGGTGGGGT | 5910 |
| AGAGCGAGGCTGAGGGACCCCAGGATGGGGGACAGG | 350 |
| CCTCCGGAACGGCGCGGGGGATCGTGGGGTGTAGGG | 675 |
| GTAGCGCTGCTGGTCTTTGCGACACCATCCGCGCCT | 399 |
| ATGCAGAAATCCAACCTACAGGAAGGTGAGTCAGAA | 461 |
| TGGCGTTGGCGGGCTTGGCATGGGGCTTCCTCTGGG | 332 |
| AAAATTAAAGCAGGAAGTAATCAACCCCATCAAATG | 4750 |
| AAACTTGAGGTGGAGGAGAGCTGAGCACTTCCTATG | 402 |
| ACAGAAAGAAGCTGCAGGCCAAGCGGATGTCAGCGG | 670 |
| CTCACACCTTATCGCGAGCCCGGCGGATGCTGACGT | 527 |
| GGCCTCGGCCACATCCGGGTTCCACCGAAGATTCGG | 11800 |
| TCCTTGCTGTTTGCTTTCGCCGTTTCCGAACCGAGG | 623 |
| GGTTCGGTGGGAGTAGAGAGTGAGGAAATGAGTCAT | 500 |
| TGCTGCTCACCTCGCAGAAAGGATATGGGACCGGCG | 357 |
| TGGAGAGCACAGGAAGTGGCCCAGAGCCCAGGCCAA | 8500 |
| GAGGCCGTAAGGAGACAGAACTACACATCCTCCGTC | 426 |
| CCTTAGCACAGAGCACCATCTACGGGAAGTCCTAAG | 459 |
| GGAACCCGGAGAAGCCCCGCCTCCCGGAAGCGGAGC | 774 |
| TTGCGCCGGACGCCACTTTCGGTCCCCGTGGACACG | 602 |
| CCCATCCATCCGCCTCCAAAGTAACGTCAAGAATTT | 2320 |
